The results in this text go back to article PMC4336329 (PLoS ONE, 2015).

SMILES strings stand for the structures. About 14,000 (4.5%) of roughly 310,000 compounds showed an effect of 50% or more. Effects have a minus sign here. Some of the results follow.
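Note: peak tail current of the secondary pulse compared with the same well before compound.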

Sequence of human ether-à-go-go-related gene (hERG) potassium channel (Q12809 whole entry, looked up): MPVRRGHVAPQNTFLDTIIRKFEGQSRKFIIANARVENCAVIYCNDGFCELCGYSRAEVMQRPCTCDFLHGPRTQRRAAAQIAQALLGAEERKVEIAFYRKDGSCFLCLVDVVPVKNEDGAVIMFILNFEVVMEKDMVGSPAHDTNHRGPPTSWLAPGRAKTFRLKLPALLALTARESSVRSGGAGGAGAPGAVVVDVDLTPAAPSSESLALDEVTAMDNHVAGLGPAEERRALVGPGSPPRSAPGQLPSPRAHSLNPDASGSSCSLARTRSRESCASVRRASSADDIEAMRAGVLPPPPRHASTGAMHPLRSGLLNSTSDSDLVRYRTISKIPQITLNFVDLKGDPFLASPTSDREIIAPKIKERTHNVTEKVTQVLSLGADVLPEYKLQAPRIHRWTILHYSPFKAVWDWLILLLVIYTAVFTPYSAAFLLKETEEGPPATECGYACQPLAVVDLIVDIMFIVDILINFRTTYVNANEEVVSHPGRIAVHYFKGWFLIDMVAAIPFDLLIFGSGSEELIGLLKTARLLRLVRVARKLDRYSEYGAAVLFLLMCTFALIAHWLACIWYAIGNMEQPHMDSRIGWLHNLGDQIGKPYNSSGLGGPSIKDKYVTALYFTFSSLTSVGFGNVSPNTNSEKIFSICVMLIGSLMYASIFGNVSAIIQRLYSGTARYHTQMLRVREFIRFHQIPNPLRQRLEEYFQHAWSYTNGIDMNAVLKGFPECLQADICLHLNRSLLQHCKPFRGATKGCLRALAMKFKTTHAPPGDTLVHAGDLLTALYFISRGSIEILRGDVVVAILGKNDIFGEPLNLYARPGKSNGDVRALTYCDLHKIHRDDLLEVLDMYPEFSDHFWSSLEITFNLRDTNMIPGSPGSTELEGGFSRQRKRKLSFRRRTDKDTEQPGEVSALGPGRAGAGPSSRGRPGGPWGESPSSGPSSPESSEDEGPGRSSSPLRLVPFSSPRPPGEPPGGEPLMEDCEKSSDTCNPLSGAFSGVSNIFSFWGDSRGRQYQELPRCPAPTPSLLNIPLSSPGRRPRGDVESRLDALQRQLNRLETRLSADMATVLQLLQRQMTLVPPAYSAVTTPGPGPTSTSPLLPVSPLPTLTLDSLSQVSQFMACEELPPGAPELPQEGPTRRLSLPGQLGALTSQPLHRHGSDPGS

The experiment concerns the target human ether-à-go-go-related gene (hERG) potassium channel (human, UniProt Q12809). The experiment is described as follows: primary screen, population patch clamp on CHO cells stably expressing hERG.
`CC1SCC(NC(=O)c2ccccc2Cl)CS1` (stereo not shown): the “hERG current change (%, negative = inhibition) at 10uM” value worked out at 0.762%.
Next, `CN1C(=O)C(=Cc2ccccc2OCc2ccc(C(=O)O)cc2)C(=O)N(C)C1=O`: 16.8%; `CC(C)C[C@H](NC(=O)c1nc[nH]c1C(=O)NCC(=O)OC(C)(C)C)C(=O)OCc1ccccc1`: 15.3%.
Turning to `Cc1ncc(CO)c(/C=N/NC(=S)Nc2ccc(C(C)C)cc2)c1O`, the “hERG current change (%, negative = inhibition) at 10uM” value worked out at 10.6%.
Next, `CCCN1CCC(=O)N([C@H](CN=[N+]=[N-])CC(C)C)CC1`: 3.11%; `CCOC(=O)CNC(=O)/C=C/c1c(Cl)cccc1Cl`: -1.61%; `c1cnc(-c2noc(CN3CCN(C4CCCC4)CC3)n2)cn1`: 18.7%.
For `Cc1ccc(C(=O)N/C(=C\Cl)P(=O)(c2ccccc2)c2ccccc2)cc1`, the “hERG current change (%, negative = inhibition) at 10uM” value came to 10.8%.
For the compound `COc1ccc(NC(=O)c2ccco2)cc1NC(=O)c1c(F)c(F)c(OC)c(F)c1F`, the “hERG current change (%, negative = inhibition) at 10uM” value is -2.08%.
With `Cc1ccc(N=C2C(=O)Nc3ccc(Br)cc32)cc1`, the “hERG current change (%, negative = inhibition) at 10uM” value is 15.5%.
As to `Cc1ccn2c(NC3CCCCC3)c(C(C)C)nc2c1`, the “hERG current change (%, negative = inhibition) at 10uM” value is -34.4%.
The same measure for `Oc1ccc2ccccc2c1C=NCc1cn2ccsc2n1`: 2.12%; for `Oc1cncc(Cc2ccccc2)c1`: 12.3%.
The same measure for `Cc1cccc2cc(COC(=O)C3CCCCC3)c(=O)[nH]c12`: 13.5%.
`COc1cc(C(=O)NCc2nnc(SCC(=O)Nc3nccs3)o2)cc(OC)c1OC`: the “hERG current change (%, negative = inhibition) at 10uM” value amounted to 7.04%.
Take `CC(C)NC(=O)/C(C#N)=C/c1ccc2c(c1)OCCO2`: the “hERG current change (%, negative = inhibition) at 10uM” value was -4.24%.
Consider `O=C(OC1CCCCC1=O)c1cccc(S(=O)(=O)NCc2ccccc2)c1` (stereo not shown), for which the “hERG current change (%, negative = inhibition) at 10uM” value is given as -44.6%.
`CS(=O)(=O)N1CCC(CO)(Cc2ccccc2C(F)(F)F)CC1`: the “hERG current change (%, negative = inhibition) at 10uM” value was 3.31%.
As to `O=C(Cc1ccccc1)N1CCN(C2CCCC2)CC1`, the “hERG current change (%, negative = inhibition) at 10uM” value is given as 0.401%.
For `O=C(CCN1CCc2ccccc2C1)Nc1ccc2c(c1)OCO2`, the “hERG current change (%, negative = inhibition) at 10uM” value is given as -23.6%.
As to `CCOC(=O)c1cc(CC)sc1/N=C/C1C(=O)CC(C)(C)CC1=O`, the “hERG current change (%, negative = inhibition) at 10uM” value was 14.9%.
For the compound `Cc1ccc(-c2cc(C(=O)NCCCN3CCOCC3)c3ccc(Cl)c(C)c3n2)cc1`, the “hERG current change (%, negative = inhibition) at 10uM” value is reported as 18.1%.
Turning to `COc1ccc(CNC(=O)COC(=O)c2c(-c3c(F)cccc3Cl)noc2C)cc1OC`, the “hERG current change (%, negative = inhibition) at 10uM” value is reported as -6.07%.
On to `CCCCN1CNC(=S)N(c2cc(C)ccc2C)C1`, for which the “hERG current change (%, negative = inhibition) at 10uM” value stood at 4.19%.
Consider `Cc1cc(C)nc(NC(=O)/C=C/c2ccc(Cl)cc2Cl)c1`, for which the “hERG current change (%, negative = inhibition) at 10uM” value was -0.362%.
